Results taken from PubChem BioAssay (NCATS).
The shares of active, inactive and inconclusive entries below differ from those in the screen. For some of these results: Potencies of inconclusive entries are left out as doubtful fits. Activity calls are given as the source filed them. Calls come from the whole dose curve; as a rule, active = well fitted curve in the direction sought with a large enough effect; inconclusive = small, poorly fitted or top-dose-only effect, or another doubt; inactive = no such curve, though single readings can be large; an effect the other way counts as inactive or inconclusive.

Experiments:
[1] = biological target: Fructose-bisphosphate aldolase (Giardia intestinalis (strain ATCC 50803 / WB clone C6)) (UniProt A8B2U2); assay: qHTS Assay for Inhibitors of Fructose-1,6-bisphosphate Aldolase from Giardia Lamblia: Primary screen confirmation (AID 2787); note: nearly all actives have a fitted effect of over 45% in size; note: potency is the fitted concentration of half-maximal effect
Sequence of UniProt A8B2U2 (A8B2U2 whole entry, looked up): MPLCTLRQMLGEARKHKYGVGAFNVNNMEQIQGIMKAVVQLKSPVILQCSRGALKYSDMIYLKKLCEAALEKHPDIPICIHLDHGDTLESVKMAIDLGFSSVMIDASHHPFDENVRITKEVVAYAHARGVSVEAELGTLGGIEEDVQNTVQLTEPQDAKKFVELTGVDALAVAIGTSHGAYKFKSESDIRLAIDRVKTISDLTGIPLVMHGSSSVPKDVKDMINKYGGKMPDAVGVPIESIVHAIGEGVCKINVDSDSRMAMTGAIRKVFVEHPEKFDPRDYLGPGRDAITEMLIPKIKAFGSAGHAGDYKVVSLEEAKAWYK
In short: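 Confirmation of primary hits by qHTS up to 57.5 uM final compound. Enzyme at 40 nM with 30 uM ZnCl2, 10 min RT pre-incubation, then substrate/coupling/resorufin-forming detection mix for 20 min before fluorescence read at 525/598 nm.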

[2] = biological target: Fructose-bisphosphate aldolase A (Oryctolagus cuniculus) (UniProt P00883); assay: qHTS Assay for Inhibitors of Fructose-1,6-bisphosphate Aldolase from Giardia Lamblia: Rabbit FBPA Selectivity (AID 2794); note: potency is the fitted concentration of half-maximal effect; nearly all actives have a fitted effect of over 60% in size
Sequence of UniProt P00883 (P00883 whole entry, looked up): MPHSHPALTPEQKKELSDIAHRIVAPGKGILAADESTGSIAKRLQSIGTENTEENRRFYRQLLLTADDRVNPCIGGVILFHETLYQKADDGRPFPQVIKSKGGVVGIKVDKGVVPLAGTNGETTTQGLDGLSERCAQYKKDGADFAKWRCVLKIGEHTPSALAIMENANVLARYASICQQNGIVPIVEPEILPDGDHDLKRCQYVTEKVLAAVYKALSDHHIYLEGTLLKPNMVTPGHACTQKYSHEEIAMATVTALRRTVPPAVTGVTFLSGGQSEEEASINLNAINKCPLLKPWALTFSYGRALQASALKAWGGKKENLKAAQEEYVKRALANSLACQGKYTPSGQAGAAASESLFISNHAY
In short: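 To triage Class I aldolase inhibitors, rabbit FBPA activity is followed through a glyceraldehyde-3-phosphate-linked enzyme cascade feeding AmpLite Red. Compounds (up to 57.5 uM final) sit 10 min with coupling enzymes before substrate; fluorescence is read 20 min later.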

[3] = qHTS Assay for Inhibitors of Fructose-1,6-bisphosphate Aldolase from Giardia Lamblia: Coupling assay counterscreen confirmation (AID 2795); note: nearly all actives have a fitted effect of over 55% in size; note: potency is the fitted concentration of half-maximal effect
In short: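 Setup: coupling enzyme reagent, compound pin-transferred to up to 57.5 uM final. Incubation: 10 min RT, then substrate + AmpLite Red for 20 min RT. Detection: fluorescence 525/598 nm.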

[4] = biological target: ATPase family AAA domain-containing protein 5 (Homo sapiens) (UniProt Q96QE3); assay: HTS assay for small molecules that inhibit ELG1-dependent DNA repair in human embryonic kidney (HEK293T) cells expressing luciferase-tagged ELG1: Hit Confirmation (AID 624248);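 note: series mostly up to about 46 µM; actives are inhibitors that lower the ELG1-luciferase luminescence; nearly all actives have a fitted effect of over 55% in size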
Sequence of UniProt Q96QE3 (Q96QE3 whole entry, looked up, the tested form may be a part): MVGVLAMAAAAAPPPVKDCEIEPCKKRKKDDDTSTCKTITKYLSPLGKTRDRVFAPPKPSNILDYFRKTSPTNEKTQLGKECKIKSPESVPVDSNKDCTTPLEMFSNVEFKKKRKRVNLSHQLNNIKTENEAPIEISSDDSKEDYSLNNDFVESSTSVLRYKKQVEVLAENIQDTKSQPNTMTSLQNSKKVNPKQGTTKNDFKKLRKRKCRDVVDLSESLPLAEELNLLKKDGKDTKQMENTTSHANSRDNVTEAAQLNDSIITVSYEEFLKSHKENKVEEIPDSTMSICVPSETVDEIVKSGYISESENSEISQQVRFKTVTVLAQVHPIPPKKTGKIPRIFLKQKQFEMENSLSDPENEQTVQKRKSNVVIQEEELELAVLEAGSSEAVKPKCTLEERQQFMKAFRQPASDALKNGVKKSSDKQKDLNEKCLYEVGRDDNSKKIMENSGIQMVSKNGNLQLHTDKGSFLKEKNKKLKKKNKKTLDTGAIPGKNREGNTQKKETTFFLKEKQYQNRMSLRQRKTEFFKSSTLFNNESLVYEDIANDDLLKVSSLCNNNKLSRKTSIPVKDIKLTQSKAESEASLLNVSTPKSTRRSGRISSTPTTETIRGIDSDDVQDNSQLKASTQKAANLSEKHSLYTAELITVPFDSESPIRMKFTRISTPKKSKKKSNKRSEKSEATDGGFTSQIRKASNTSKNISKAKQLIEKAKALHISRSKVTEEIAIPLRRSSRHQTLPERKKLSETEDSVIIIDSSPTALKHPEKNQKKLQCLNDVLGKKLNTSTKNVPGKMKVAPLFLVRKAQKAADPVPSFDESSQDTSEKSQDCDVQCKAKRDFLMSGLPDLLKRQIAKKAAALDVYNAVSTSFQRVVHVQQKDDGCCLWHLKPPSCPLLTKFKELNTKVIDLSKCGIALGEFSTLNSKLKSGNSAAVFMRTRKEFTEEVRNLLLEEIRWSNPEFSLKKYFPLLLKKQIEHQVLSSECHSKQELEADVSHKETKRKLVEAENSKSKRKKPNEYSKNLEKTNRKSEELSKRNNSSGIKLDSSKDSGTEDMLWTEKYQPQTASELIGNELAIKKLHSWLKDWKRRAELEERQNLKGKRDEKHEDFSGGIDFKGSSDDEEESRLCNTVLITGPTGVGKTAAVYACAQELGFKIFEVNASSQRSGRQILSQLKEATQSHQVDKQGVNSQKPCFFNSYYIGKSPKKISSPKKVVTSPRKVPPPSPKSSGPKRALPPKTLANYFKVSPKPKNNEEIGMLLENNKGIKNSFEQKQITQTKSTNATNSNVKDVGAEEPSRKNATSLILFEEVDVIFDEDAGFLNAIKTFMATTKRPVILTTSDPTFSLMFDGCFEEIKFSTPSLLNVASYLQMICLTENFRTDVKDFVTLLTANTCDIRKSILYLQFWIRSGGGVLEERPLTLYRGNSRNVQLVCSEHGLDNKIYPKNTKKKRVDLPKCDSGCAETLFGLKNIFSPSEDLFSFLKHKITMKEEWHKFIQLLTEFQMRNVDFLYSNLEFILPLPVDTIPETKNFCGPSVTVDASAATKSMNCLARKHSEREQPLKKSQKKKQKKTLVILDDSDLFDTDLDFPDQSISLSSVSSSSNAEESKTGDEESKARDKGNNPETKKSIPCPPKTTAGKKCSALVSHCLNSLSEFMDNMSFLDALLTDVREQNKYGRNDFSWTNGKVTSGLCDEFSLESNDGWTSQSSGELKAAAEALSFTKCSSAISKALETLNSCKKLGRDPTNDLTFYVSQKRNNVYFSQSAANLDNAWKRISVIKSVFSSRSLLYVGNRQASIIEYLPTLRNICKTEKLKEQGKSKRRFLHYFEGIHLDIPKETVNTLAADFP
In short: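 Suppression of ELG1-luciferase signal was read by ONE-Glo luminescence in HEK293T reporter cells after 16 h at 37 C co-treatment with compound and 5-fluorouridine as DNA-damaging agent.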

[5] = qHTS screen for small molecules that inhibit ELG1-dependent DNA repair: Hit Confirmation with MMS Viability (AID 624251);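 note: potency is the fitted concentration of half-maximal effect; viability read 16 h after compound addition; nearly all actives have a fitted effect of over 60% in size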
In short: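 Under 10 µM MMS, compounds were tested on ELG1-luc HEK293T cells seeded at 2,000 cells/well; survival was determined by CellTiter-Glo luminescence 16 h post-addition.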
Tags give direction and shape of the fitted curve.

In the case of `S=C(Nc1ccc2nsnc2c1)N1CCCC1`, the Potency [1] is reported as inconclusive [inhibitor, partial curve], the Potency [2] is reported as inconclusive [inhibitor, partial curve] and the Potency [3] is reported as inconclusive [inhibitor, partial curve].
In the case of `CCN(CC)c1ccc(N=C2C(=O)Nc3ccccc32)cc1`, the Potency [1] is reported as active: 0.259 µM, the Potency [2] is reported as inconclusive [inhibitor, full curve] and the Potency [3] is reported as active: 0.73 µM.
With `COc1ccc(Nc2cc(C)c3ccc(O)cc3n2)cc1` the Potency [1] was inconclusive [inhibitor, single point], the Potency [2] was inconclusive [inhibitor, single point] and the Potency [3] was inconclusive [inhibitor, single point].
With `CCOc1cc(/C=N/Nc2nnc(C)n2N)ccc1O` the Potency [1] was inconclusive [inhibitor, partial curve], the Potency [2] was inconclusive [inhibitor, partial curve] and the Potency [3] was inconclusive [inhibitor, partial curve].
With `Cc1[nH]c2ccccc2c1/C=N/Nc1nc2ccccc2[nH]1` the Potency [1] was “inactive” and the Potency [3] was “inactive”.
In the case of `COc1cc(NC(C)CCc2ccccc2)cc(OC)c1OC` (centres undefined), the Potency [1] is reported as inconclusive [inhibitor, partial curve], the Potency [2] is reported as inconclusive [inhibitor, partial curve] and the Potency [3] is reported as inconclusive [inhibitor, partial curve].
In the case of `Nn1c(C2COc3ccccc3O2)n[nH]c1=S` (centres undefined), the Potency [1] is reported as inconclusive [inhibitor, partial curve], the Potency [2] is reported as inconclusive [inhibitor, partial curve] and the Potency [3] is reported as inconclusive [inhibitor, full curve].
With `COC(=O)/C(=C/Nc1cccc2ccccc12)[N+](=O)[O-]` the Potency [1] was inconclusive [inhibitor, partial curve], the Potency [2] was inconclusive [inhibitor, partial curve] and the Potency [3] was inconclusive [inhibitor, partial curve].
For `CCOC(=O)C(Nc1ccc2ccccc2c1)C(=O)OCC`, the Potency [1] was inconclusive [inhibitor, partial curve], the Potency [2] was inconclusive [inhibitor, partial curve] and the Potency [3] was active: 39.8 µM.
For `Oc1c(/C=N/c2ncn[nH]2)ccc2ccccc12`, the Potency [1] was active: 8.91 µM, the Potency [2] was active: 39.8 µM and the Potency [3] was inconclusive [inhibitor, partial curve].
For `CC(=O)Nc1ccc2nc3c(=O)n(C)c(=O)n(C)c3nc2c1`, the Potency [1] was inconclusive [inhibitor, partial curve], the Potency [2] was inconclusive [inhibitor, partial curve] and the Potency [3] was active: 39.8 µM.
In the case of `Cn1ncc(Br)c1C(=O)N/N=C/c1cccc(OC2CSC2)c1`, the Potency [1] is reported as active: 31.6 µM, the Potency [2] is reported as active: 35.5 µM and the Potency [3] is reported as active: 35.5 µM. The Potency [4] was “inactive” and the Potency [5] was inconclusive [cytotoxic, partial curve, poor fit].
In the case of `CC(C)(C)c1ccc(/C=N/Nc2nncn2N)cc1`, the Potency [1] is reported as active: 14.1 µM, the Potency [2] is reported as inconclusive [inhibitor, partial curve] and the Potency [3] is reported as inconclusive [inhibitor, partial curve].
In the case of `Cc1cc(=O)c2c(O)c(O)ccc2o1`, the Potency [1] is reported as inconclusive [inhibitor, partial curve], the Potency [2] is reported as inconclusive [inhibitor, partial curve] and the Potency [3] is reported as inconclusive [inhibitor, partial curve].
With `CCOc1ccc(CNc2ccc(N3CCCC3)cc2)cc1` the Potency [1] was inconclusive [inhibitor, full curve], the Potency [2] was inconclusive [inhibitor, partial curve] and the Potency [3] was inconclusive [inhibitor, partial curve].
For `S=C(NCCc1ccccc1)Nc1c(Cl)cccc1Cl`, the Potency [1] was inconclusive [inhibitor, single point], the Potency [2] was inconclusive [inhibitor, single point] and the Potency [3] was inconclusive [inhibitor, single point].
